According to PubChem BioAssay AID488969 (Vanderbilt High Throughput Screening Facility, 2010):
In all, about 110,000 compounds were measured (“z-score”: median about -0.1, highest 2% from about 2 on). This is one part of the list.

Each molecule was assayed against Metabotropic glutamate receptor 8 (Rattus norvegicus) (UniProt P70579) (assay: rat mGluR8 modulators via GIRK flux, primary screen, cell-based, thallium flux, HTS (AID 488969)). Conditions: HEK293 rat mGluR8, GIRK (G protein-gated inwardly rectifying potassium channel) thallium flux, FluoZin2; at 10 µM; stronger effect = higher value; submaximal glutamate (EC20) added with thallium.
UniProt P70579, sequence (P70579 whole entry, looked up): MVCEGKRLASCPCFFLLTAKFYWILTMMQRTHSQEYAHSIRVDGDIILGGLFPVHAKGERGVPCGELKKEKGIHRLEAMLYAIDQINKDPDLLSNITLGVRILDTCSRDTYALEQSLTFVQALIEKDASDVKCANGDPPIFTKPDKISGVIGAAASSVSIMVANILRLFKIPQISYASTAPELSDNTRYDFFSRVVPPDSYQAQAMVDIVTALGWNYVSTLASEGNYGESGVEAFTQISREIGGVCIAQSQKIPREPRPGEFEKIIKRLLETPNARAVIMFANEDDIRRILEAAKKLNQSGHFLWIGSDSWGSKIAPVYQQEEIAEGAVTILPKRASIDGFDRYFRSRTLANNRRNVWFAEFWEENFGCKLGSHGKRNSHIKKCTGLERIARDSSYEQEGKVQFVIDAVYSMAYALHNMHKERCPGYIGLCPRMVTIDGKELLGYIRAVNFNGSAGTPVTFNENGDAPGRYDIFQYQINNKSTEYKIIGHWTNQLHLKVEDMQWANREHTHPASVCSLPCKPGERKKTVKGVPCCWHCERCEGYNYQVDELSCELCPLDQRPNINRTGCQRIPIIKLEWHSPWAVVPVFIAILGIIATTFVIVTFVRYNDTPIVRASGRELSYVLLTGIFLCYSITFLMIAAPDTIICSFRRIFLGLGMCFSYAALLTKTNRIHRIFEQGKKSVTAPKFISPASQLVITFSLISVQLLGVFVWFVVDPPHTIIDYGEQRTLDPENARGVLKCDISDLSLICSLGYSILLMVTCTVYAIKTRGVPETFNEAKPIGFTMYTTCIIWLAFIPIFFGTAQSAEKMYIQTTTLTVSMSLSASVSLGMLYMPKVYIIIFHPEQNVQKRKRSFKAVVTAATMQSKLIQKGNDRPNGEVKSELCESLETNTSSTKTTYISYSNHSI
`COc1cc(OC)cc(C(=O)NCC(=O)OCC(=O)C(C)(C)C)c1` was tested, and the z-score was 0.0807.
In the case of `Cc1cc(=O)oc2cc(OCC#N)ccc12`, the z-score is reported as -0.163.
In the case of `CCc1ccc(S(=O)(=O)NCCc2cn3ccsc3n2)s1`, the z-score is reported as 0.135.
`CCOC(=O)CSc1nnc(NC(=O)c2cccc(S(=O)(=O)N3CCCCCC3)c2)s1` showed a z-score of -0.31.
Molecule `Cc1cc(=O)[nH]c(SCc2nc3ccc([N+](=O)[O-])cc3[nH]2)n1` has a z-score of -0.173.
In the case of `Cc1cccc(C(C)(C)C)c1OCCOCCN1CCCC1`, the z-score is reported as 0.391.
In the case of `Cc1cccc(OCc2nnc(NC(=O)c3cccs3)s2)c1`, the z-score is reported as -0.0598.
In the case of `CCc1cccc(C)c1NC(=O)CSc1nc2ccc(N3C(=O)c4ccccc4C3=O)cc2s1`, the z-score is reported as -0.494.
`COCCCNC(=S)NC(=O)c1ccccc1` was tested, and the z-score was -0.0478.
For `CNCc1ccccc1Sc1ccc(O)c(O)c1`, the z-score was 0.113.
For `Cc1ccc(-c2c(C#N)c(N)n(-c3ccc(C)cc3)c(=O)c2C#N)cc1`, the z-score was -0.0302.
With `Cc1c(C)c2cc3c4c(oc3c(C)c2oc1=O)CCCC4` the z-score was -0.354.
`O=C(COC(=O)CN1C(=O)C2CCCCC2C1=O)NC1CCS(=O)(=O)C1` (stereo not given) was tested, and the z-score was -0.413.
`CCN(CC)S(=O)(=O)c1cccc(C(=O)/C=C2/N(C)c3ccccc3C2(C)C)c1` showed a z-score of -0.269.
In the case of `O=C(O)c1nn2c(C(F)(F)F)cc(-c3cccs3)nc2c1Cl`, the z-score is reported as -0.169.
For `COc1ccc(N(C(=O)c2cccc(OC)c2OC)C2C=CS(=O)(=O)C2)c(OC)c1` (stereo not given), the z-score was -0.127.
Work on `CC(C)Oc1ccc(CN=C(N)N=C(N)N)cc1Cl` yielded a z-score of -0.171.
Work on `CCC(C)C(=O)Nc1c2c(nc3c1CCC3)CCCC2` (stereo not given) yielded a z-score of -0.0844.
`Cc1ccc(-n2c(C)cc(/C=N\NC(=O)CC(=O)NC(C)C)c2C)cc1` gave a z-score of 0.919.
For `CCCCn1c(SCC(=O)c2ccccc2)nc2ccsc2c1=O`, the z-score was -0.633.
With `CCCc1cc(=O)[nH]c(SC(CC)C(=O)Nc2ccccc2C#N)n1` (stereo not given) the z-score was -0.143.
`CCCCOC(=O)Nc1ccc(C(C)C)cc1` showed a z-score of -0.173.
`Cc1ccc(Oc2ccccc2/C=C2\SC(=O)N(C)C2=O)cc1` was tested, and the z-score was 0.131.
`CCOc1ccc(NCCC#N)cc1` was tested, and the z-score was 0.967.
In the case of `Nn1c(Cc2ccccc2F)nnc1SCCOc1ccc(Cl)cc1`, the z-score is reported as -0.221.
Molecule `CC1(C)COC(c2ccc(F)c([N+](=O)[O-])c2)=N1` has a z-score of -0.176.
In the case of `O=C(CP(=O)(CO)CO)c1ccc(Cl)cc1`, the z-score is reported as 0.307.
`Cc1ccc(S(=O)(=O)N2CCCC2C(=O)Nn2cnnc2)cc1` (stereo not given) showed a z-score of 0.562.
In the case of `O=C(CSc1nnc(COc2ccccc2)o1)N1CCN(c2ccccc2)CC1`, the z-score is reported as -0.404.
Work on `O=C(Nc1ccc2oc(-c3cccc(F)c3)nc2c1)c1ccccc1F` yielded a z-score of -0.302.
With `O=C(CCn1nc(-c2ccccc2)ccc1=O)N1CCCC1` the z-score was 0.688.
Molecule `Cc1ccc(S(=O)(=O)N(C(=O)c2ccncc2)c2ccc3oc4c(c3c2)CCCC4)cc1[N+](=O)[O-]` has a z-score of 0.393.
`Cc1cc(C(=O)CSc2nnc(-c3ccc(Cl)cc3)n2C)c(C)n1CC1CCCO1` (stereo not given) gave a z-score of -0.132.
`CCN1CCN(C(=O)c2nn(-c3ccccc3)c(=O)c3ccccc23)CC1` was tested, and the z-score was -0.208.
For `CCCCCn1c(CN2CCN(Cc3ccccc3)CC2)nc2c1c(=O)n(C)c(=O)n2C`, the z-score was -0.501.
Molecule `O=C(c1ccccc1)N1CCN(C(=O)c2ccncc2)CC1` has a z-score of 0.313.
`COc1ccc(C(=O)Nc2ccc(C(=O)OCC(=O)c3cccc4ccccc34)cc2)cc1` was tested, and the z-score was -0.213.
With `CC(C)c1nc(C#N)c(NCCCn2ccnc2)o1` the z-score was 0.481.
With `Cc1cccc(NC(=S)Nc2ccc(Br)cc2)c1` the z-score was 0.413.
`O=C(/C=C/c1ccccc1)Nc1cc(S(=O)(=O)N2CCOCC2)ccc1N1CCCC1` gave a z-score of -0.369.
In the case of `Cc1ccc(-n2c3c(cc(C(=O)NC4CCSC4=O)c2=O)C(=O)CC(C)(C)C3)cc1` (stereo not given), the z-score is reported as 0.499.
For `O=C(NNc1ccc([N+](=O)[O-])cc1)C1C2CCCCC21` (stereo not given), the z-score was 0.0673.
In the case of `CCOC(=O)Cc1csc(N/N=C\c2cccc(Br)c2)n1`, the z-score is reported as -0.205.
In the case of `COc1cc(C2C(C#N)=C(N)N(Nc3ccccc3)C3=C2C(=O)CC(C)(C)C3)ccc1OCc1cccc(F)c1` (stereo not given), the z-score is reported as -0.0381.
With `Cn1c(CC(=O)NC(C)(C)CO)c(Sc2ccccc2)c2ccccc21` the z-score was -0.552.
In the case of `O=C(NC(=O)c1ccccc1)NC(=O)c1ccccc1`, the z-score is reported as 0.327.
`COc1ccc(S(=O)(=O)Nc2nnc(C(C)C)s2)cc1` gave a z-score of -0.251.
`CCCCOc1ccc(-c2nc(SCC(N)=O)n[nH]2)cc1` was tested, and the z-score was -0.135.
For `CC/C=C/C(=O)N1CC2(CC(c3cccc(NC(=O)c4ccccc4)c3)=NO2)C[C@@H]1C(N)=O` (stereo not given in full), the z-score was -0.33.
`COCCN1CN(S(=O)(=O)c2ccccc2)c2nc3ccccc3nc21` gave a z-score of -0.27.
With `O=c1c2c3c(sc2n2cnnc2n1Cc1ccccc1)CN(Cc1ccccc1)CC3` the z-score was -0.849.
`O=C(NCc1cccs1)c1ccc2c(c1)ncn2C1CCCC1` was tested, and the z-score was -0.256.
Molecule `CSc1cc(N2CCOCC2)nc(-c2ccccc2Cl)n1` has a z-score of -0.837.
In the case of `CCOC(=O)C1CCN(Cc2c(O)ccc3ccccc23)CC1`, the z-score is reported as -0.762.
Work on `NC(=O)C1CCCN(S(=O)(=O)c2ccc(Br)cc2)C1` (stereo not given) yielded a z-score of 0.19.
